{"source": "PubChem BioAssay AID757", "about": "(NMMLSC, 2007)", "note": "About 520 (0.27%) of roughly 190,000 compounds were called active. The shares of active, inactive and inconclusive entries below differ from those in the screen.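 Rule for the calls: active = GTP binding activity at least 20 points away from the 100% control level, either lower or higher; inconclusive = compound flagged as likely green fluorescent, judged across all proteins; inactive = the rest.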"}
{"molecular_target": "Ras-related C3 botulinum toxin substrate 1 (Homo sapiens) (UniProt P63000)", "test": "wildtype Rac1 GTP binding modulators, primary screen, biochemical, GST-Rac1 beads, flow cytometry, multiplex (AID 757)", "settings": "fluorescent GTP binding, at 10 µM, actives lie on both sides, 0 = cold GTP competed, 100 = untreated"}
{"smiles": "O=C(c1cc2nc(-c3ccco3)cc(C(F)(F)F)n2n1)N1CCCc2ccccc21", "GTP binding activity (% of control)": "inconclusive: 88%"}
{"smiles": "COc1ccc(NC(=O)CSc2n[nH]c(C)c2[N+](=O)[O-])cc1", "GTP binding activity (% of control)": "inconclusive: 91%"}
{"smiles": "O=C(CSc1nnc(SCc2ccccc2)s1)N/N=C/c1c(Cl)cccc1Cl", "GTP binding activity (% of control)": "inconclusive: 97%"}
{"smiles": "O=C(Nc1cc(C(F)(F)F)ccc1-n1cnc2ccccc21)c1ccccc1", "GTP binding activity (% of control)": "inactive: 102%"}
{"smiles": "CCOC(=O)c1c(NC(=O)COC(=O)c2ccc(O)cc2)sc(C(=O)N(C)C)c1C", "GTP binding activity (% of control)": "inconclusive: 97%"}
{"smiles": "COC(=O)c1cc(C(=O)OCC(=O)N(C)C2CCS(=O)(=O)C2)cc([N+](=O)[O-])c1", "note": "(stereo unspecified)", "GTP binding activity (% of control)": "inconclusive: 96%"}
{"smiles": "Cc1cccc(NC(=O)COC(=O)c2cccc3c2C(=O)c2ccccc2C3=O)c1C", "GTP binding activity (% of control)": "inconclusive: 93%"}
{"smiles": "CN(C)S(=O)(=O)Nc1ccccc1F", "GTP binding activity (% of control)": "inconclusive: 99%"}
{"smiles": "COCc1cc(C)nc(N/N=C/c2ccc(-c3ccc(C(=O)O)c(Cl)c3)o2)c1C#N", "GTP binding activity (% of control)": "active: 67%"}
{"smiles": "O=C1C2C3C=CC(C4CC34)C2C(=O)N1/N=C/c1cccs1", "note": "(stereo unspecified)", "GTP binding activity (% of control)": "inactive: 102%"}
{"smiles": "COc1ccc2c(CC(=O)OCC(=O)Nc3ccccc3[N+](=O)[O-])coc2c1", "GTP binding activity (% of control)": "inconclusive: 95%"}
{"smiles": "CCCCc1ncc(CN2CCN(Cc3ccc(C)cc3)C(CCO)C2)[nH]1", "note": "(stereo unspecified)", "GTP binding activity (% of control)": "inactive: 97%"}
{"smiles": "CCOc1ccc(NC(=O)c2ccco2)c([N+](=O)[O-])c1", "GTP binding activity (% of control)": "inconclusive: 106%"}
{"smiles": "CC(=O)Nc1ccc(N2CCCC2)cc1", "GTP binding activity (% of control)": "inconclusive: 104%"}
{"smiles": "CCOC(=O)c1c(NC(=O)c2ccnn2C)sc(C)c1C", "GTP binding activity (% of control)": "inactive: 108%"}
{"smiles": "C/C(=N/NC(=O)c1ccc(C)nc1)c1ccc2c(c1)CCCC2", "GTP binding activity (% of control)": "inactive: 101%"}
{"smiles": "CN(Cc1ccccc1)C(=O)CCC(=O)N(C)Cc1ccccc1", "GTP binding activity (% of control)": "inconclusive: 105%"}
{"smiles": "COc1cccc(/C(O)=C/c2nc3ccc(C(=O)NCCc4ccc(Cl)cc4)cc3[nH]c2=O)c1", "GTP binding activity (% of control)": "inconclusive: 106%"}
{"smiles": "COC(=O)CC1=NN(c2ccccc2)C(=O)C1", "GTP binding activity (% of control)": "inactive: 101%"}
{"smiles": "O=C(c1ccc2c(c1)OCO2)N1CCN(c2ncccn2)CC1", "GTP binding activity (% of control)": "inconclusive: 104%"}
{"smiles": "COc1ccc(-n2c(C)cc(/C=C3/SC(=S)N(C)C3=O)c2C)cc1", "GTP binding activity (% of control)": "inconclusive: 182%"}
{"smiles": "COc1cccc(C(=O)NC(=S)Nn2cnnc2)c1OC", "GTP binding activity (% of control)": "inactive: 97%"}
{"smiles": "C=CCn1c(=O)c2ccccc2n2c(SCc3cc(=O)n4ccsc4n3)nnc12", "GTP binding activity (% of control)": "inconclusive: 112%"}
{"smiles": "Cc1cc(=O)[nH]c(-c2ccccc2O)n1", "GTP binding activity (% of control)": "inconclusive: 98%"}
{"smiles": "Cc1ccc(OCc2nn3c(-c4ccco4)nnc3s2)cc1", "GTP binding activity (% of control)": "inconclusive: 103%"}
{"smiles": "CCC(C(=O)NC1CCCCC1)N(Cc1cccs1)C(=O)c1snc(C(N)=O)c1N", "note": "(stereo unspecified)", "GTP binding activity (% of control)": "inactive: 92%"}
